The record followed here is PubChem BioAssay AID488969 (Vanderbilt High Throughput Screening Facility, 2010).

Over roughly 110,000 compounds, “z-score” has its median near -0.1; the highest 2% begin near 2. The list shows a part of the results.

The target of this test is Metabotropic glutamate receptor 8 (Rattus norvegicus) (UniProt P70579). The experiment in a line: rat mGluR8 modulators via GIRK flux, primary screen, cell-based, thallium flux, HTS (AID 488969). The conditions noted are these: HEK293 rat mGluR8, GIRK (G protein-gated inwardly rectifying potassium channel) thallium flux, FluoZin2; at 10 µM; stronger effect = higher value; submaximal glutamate (EC20) added with thallium.
UniProt P70579, sequence (P70579 whole entry, looked up): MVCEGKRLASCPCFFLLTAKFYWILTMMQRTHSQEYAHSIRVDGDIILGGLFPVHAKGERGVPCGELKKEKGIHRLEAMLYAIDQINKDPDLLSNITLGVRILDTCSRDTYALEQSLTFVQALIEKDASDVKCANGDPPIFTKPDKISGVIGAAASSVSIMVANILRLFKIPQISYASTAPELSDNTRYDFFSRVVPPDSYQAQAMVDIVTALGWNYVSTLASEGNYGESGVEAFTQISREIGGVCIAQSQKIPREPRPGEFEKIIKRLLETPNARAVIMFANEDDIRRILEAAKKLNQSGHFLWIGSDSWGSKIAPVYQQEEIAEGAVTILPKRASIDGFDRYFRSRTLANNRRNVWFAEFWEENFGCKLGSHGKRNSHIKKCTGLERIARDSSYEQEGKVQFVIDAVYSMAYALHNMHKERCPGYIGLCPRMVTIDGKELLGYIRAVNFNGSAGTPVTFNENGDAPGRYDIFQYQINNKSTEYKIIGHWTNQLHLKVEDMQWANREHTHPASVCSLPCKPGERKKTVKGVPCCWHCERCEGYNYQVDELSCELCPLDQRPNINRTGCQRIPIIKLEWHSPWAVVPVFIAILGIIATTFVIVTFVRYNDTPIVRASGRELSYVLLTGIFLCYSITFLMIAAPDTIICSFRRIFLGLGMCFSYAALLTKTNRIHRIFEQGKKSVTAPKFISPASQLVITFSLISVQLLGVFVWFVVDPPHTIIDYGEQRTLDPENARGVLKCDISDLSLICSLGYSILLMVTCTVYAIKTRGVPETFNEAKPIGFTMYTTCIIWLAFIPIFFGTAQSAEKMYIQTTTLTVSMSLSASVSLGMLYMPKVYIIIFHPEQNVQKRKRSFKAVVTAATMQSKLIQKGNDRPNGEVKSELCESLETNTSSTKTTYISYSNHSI
In turn, `O=C1CC(c2ccc3c(c2)OCO3)c2cc3c(cc2N1)OCCO3` (configuration not stated) gave a z-score of 0.0815. Then `COc1cc(/C=N/N=C2/C(=O)Nc3ccccc32)ccc1O`, with -0.325; and `Cc1ccc(C(=O)c2c[nH]cc2-c2ccccc2)cc1`, with -0.0163. `CN(C)C(=O)N1CCN(C(=O)N(C)C)CC1` displayed a z-score of 0.477.

`O=C(CN(C(=O)Cn1nnc(-c2cccs2)n1)c1ccc2c(c1)OCCO2)NC1CCCCC1`: the z-score was -0.0843. Then `CCOc1ccc2c(c1)C(c1ccc(C)cc1)=NNC(c1ccc(OC)cc1)=N2`, with -0.237.

In turn, `Cc1ccc(Oc2nnc(-c3ccccc3)c3ccccc23)cc1` gave a z-score of -0.491. Then `Cc1ccc(N(C(=O)c2cc3ccccc3oc2=O)C2C=CS(=O)(=O)C2)cc1` (configuration not stated), with -0.201; and `CCOC(=O)c1[nH]c(C)c(C(=O)NCCN2CCOCC2)c1C`, with -0.193. Under `OCCn1c(SC2CCCCC2)nc2ccccc21` stands 0.162; under `O=C(/C=C/c1ccc2c(c1)OCCCO2)c1ccc2ccccc2c1O`, 0.573; under `Cc1nn2c(NCCOCCO)c3c(nc2c1-c1ccccc1)CCCC3`, -0.295.

Consider `c1ccc(-c2nc(N3CCNCC3)nc3ccccc23)cc1`, for which the z-score was 0.808. Under `COc1ccc(Cc2nnc(NC(=O)c3ccco3)s2)cc1` stands -0.607. In turn, `COc1cc2c(cc1OC)CN(Cc1cc(=O)oc3c(C)c(C)ccc13)CC2` yielded a z-score of -0.0606. Then `CCOc1ccc(NC(=O)NCCN2C(C)CCCC2C)cc1` (configuration not stated), with 0.00245; and `O=C(NC(=S)N(Cc1ccccc1)c1ccccn1)C1CCCCC1`, with 0.425. Then `CC(NC(=O)CC(c1ccccc1)c1cc(Cl)ccc1O)c1ccccc1` (configuration not stated), with -0.843; and `CCn1c(SCC(=O)Nc2cc(C)on2)nnc1-c1ccccc1`, with -0.0132; and `Cc1cc(C)c(NC(=O)C2CCCN2C)c(C)c1` (configuration not stated), with -0.0987. Under `CC1CCN(CCc2nc3cc(NC(=O)Nc4ccccc4)ccc3n2C)CC1` stands 0.703; under `COC(=O)[C@H](Cc1ccccc1)NC(=O)NCCC1=CCCCC1`, 0.746. In turn, `CCc1cc2ccc(C)cc2nc1SCC(=O)N1CCN(C(=O)c2ccco2)CC1` yielded a z-score of 1.74. In the case of `O=C(Nc1cccc(NC(=O)C2CC3CCCC(C2)C3=O)n1)C1CC2CCCC(C1)C2=O` (configuration not stated), the z-score was -0.142.

Turning to `CCN(CC)S(=O)(=O)c1ccc(-c2nnc(SCc3nnc(-c4ccccc4)o3)o2)cc1`, the z-score is -0.338. Compound `COc1ccc(C2(C(=O)O)CCCC2)cc1` returned a z-score of -0.0964. Under `COC(=O)C(C)Sc1n[nH]c(=S)s1` (configuration not stated) stands 0.629.

Take `CC(C)c1ccc(NC(=O)C2CCN(S(C)(=O)=O)CC2)cc1`: the z-score was 0.101. Consider `COc1ccc(-c2ccc(-c3noc(-c4ccccc4OC)n3)c(OC)n2)cc1`, for which the z-score was found to be 0.242.

The compound `Cc1cc(OC(=O)c2ccco2)c2c(C)cc(=O)oc2c1` came in with a z-score of -0.119. In turn, `COc1ccc(CN2CCOCC2)c(C)c1C` returned a z-score of 0.151. Then `CCCCCCC(=O)Nc1ccc(Cl)cn1`, with -0.197.
